In PubChem BioAssay AID1645882 (National Center for Advancing Translational Sciences (NCATS), 2021):
Screen size: about 16,000 compounds; about 120 (0.75%) were called active. Roughly 4% stayed inconclusive and do not appear here. The call rests on the fitted dose curve; in most records, active means well fitted inhibition curve with a large enough effect; inconclusive means small, poorly fitted or top-dose-only effect; inactive means no such curve, though single readings can be large or run the other way. Some of the results follow. Where a SMILES comes first, the peptide text is derived from it. Bridges are numbered along the chain shown (N, C = ends).

Target: Rap guanine nucleotide exchange factor 3 (Homo sapiens) (UniProt O95398)
Assay: Validation qHTS for antagonist of cAMP-regulated guanine nucleotide exchange factor 3 (EPAC1);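 further: plate controls were DMSO for no effect and ATA control for full effect; nearly all actives have a fitted effect of over 75% in size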
Conditions: EPAC1 Rap1B-BODIPY-GDP exchange, fluorescence; series mostly up to 150 µM; activity change, negative = inhibition: at the top concentration
Method in brief: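 Nucleotide exchange followed as fluorescence loss when BODIPY-GDP leaves Rap1B (480 nm excitation, 540 nm emission), read at 5 min intervals over 30 min. Reaction: 100 nM EPAC1, 250 nM RAP1B-BODIPY-GDP, 50 uM GDP; ATA and DMSO define normalization.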

Sequence of UniProt O95398 (O95398 whole entry, looked up): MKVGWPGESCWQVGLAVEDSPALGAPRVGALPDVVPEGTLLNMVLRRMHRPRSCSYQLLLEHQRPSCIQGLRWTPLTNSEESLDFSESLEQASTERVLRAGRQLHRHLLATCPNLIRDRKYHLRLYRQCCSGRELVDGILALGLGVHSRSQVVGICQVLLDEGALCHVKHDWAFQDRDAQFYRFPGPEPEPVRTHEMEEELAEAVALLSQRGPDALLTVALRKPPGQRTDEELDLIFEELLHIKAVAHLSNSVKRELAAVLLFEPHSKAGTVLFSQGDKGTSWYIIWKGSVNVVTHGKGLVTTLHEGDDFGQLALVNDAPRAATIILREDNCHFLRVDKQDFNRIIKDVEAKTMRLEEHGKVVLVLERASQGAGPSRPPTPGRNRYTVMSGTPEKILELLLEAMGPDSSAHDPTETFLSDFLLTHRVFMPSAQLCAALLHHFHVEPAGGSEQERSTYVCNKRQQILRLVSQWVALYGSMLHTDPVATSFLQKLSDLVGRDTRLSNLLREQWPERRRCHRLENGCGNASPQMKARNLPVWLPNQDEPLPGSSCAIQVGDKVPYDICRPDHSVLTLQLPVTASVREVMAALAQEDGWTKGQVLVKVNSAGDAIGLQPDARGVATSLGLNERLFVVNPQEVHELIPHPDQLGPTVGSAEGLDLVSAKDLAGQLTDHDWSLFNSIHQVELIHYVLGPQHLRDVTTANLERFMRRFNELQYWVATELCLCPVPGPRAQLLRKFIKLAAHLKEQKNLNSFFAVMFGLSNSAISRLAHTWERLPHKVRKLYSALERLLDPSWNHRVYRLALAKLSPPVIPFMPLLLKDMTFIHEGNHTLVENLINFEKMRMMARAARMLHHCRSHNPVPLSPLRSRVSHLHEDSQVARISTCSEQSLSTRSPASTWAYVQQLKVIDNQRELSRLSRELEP

Activity change, negative = inhibition, inactive:
CN1C(=O)CCC1c1cccnc1 (centres undefined)
NC(=O)OC[C@@H]1[C@H](NC(=O)/C(=N\OCC(=O)O)c2csc(N)n2)C(=O)N1S(=O)(=O)O -0.613%
CCC1OC(=O)C(C)[C@@H](O[C@H]2C[C@@](C)(OC)C(O)C(C)O2)C(C)[C@@H](O[C@@H]2OC(C)CC(N(C)C)C2O)[C@@](C)(O)CC(C)C2NC(COCCOC)O[C@H](C2C)[C@@]1(C)O (some centres undefined) 1.4%
COc1cccc(-c2cncnc2NCc2ccccc2)c1 18.9%
NC[C@H]1O[C@H](O[C@H]2[C@H](O)[C@@H](O[C@H]3O[C@H](CO)[C@@H](O)[C@H](N)[C@H]3O)[C@H](N)C[C@@H]2N)[C@H](O)[C@@H](O)[C@@H]1O 18.1% [at 75.8 µM]
CC[C@H]1OC(=O)C[C@@H](O)[C@H](C)[C@@H](O[C@@H]2O[C@H](C)[C@@H](O[C@H]3C[C@@](C)(O)[C@@H](O)[C@H](C)O3)[C@H](N(C)C)[C@H]2O)[C@@H](CC=O)C[C@@H](C)C(=O)/C=C/C(C)=C/[C@@H]1CO[C@@H]1O[C@H](C)[C@@H](O)[C@@H](OC)[C@H]1OC
c1cnc2cc3c(cc2n1)C1CNCC3C1 30.1% [at 320 µM]
CCO[C@H](Cc1ccc(OCCc2ccc(OS(C)(=O)=O)cc2)cc1)C(=O)O 1.31%
COc1cc(O)ccc1CN1CCc2nnc(C(C)NC(=O)c3cc(F)ccc3F)n2CC1 (centres undefined) 18.9%
COc1ccccc1-c1ccnc(-n2ncc(C(=O)N3CCCCC3c3cccnc3)c2C)n1 (centres undefined) 4.03%
COc1ccccc1CNc1cc(-c2ccccc2C(F)(F)F)ncn1 -26.4%
Cc1cc(C)c(NC(=O)C[C@H](CC(=O)O)c2cccc3ccccc23)c(C(=O)N2CCC3(CCCC3)CC2)c1 17.2%
CC(C)ON([C@@H](C(=O)NO)C(C)C)S(=O)(=O)c1ccc(-c2ccccc2)cc1 -2.03% [at 75.8 µM]
CN(C)c1ncc2nc(-c3cccs3)c(=O)n(-c3ccccc3)c2n1 12.7%
CC(C)CCCC(C)C1CCC2C3CC=C4CC(O)CC[C@@]4(C)C3CC[C@@]12C (some centres undefined) 9.17%
CCc1ccc2c(-c3cccc(Cl)c3)nc(=O)n(CC)c2n1
O=C(CCCCCCC(=O)Nc1ccccc1)NO
CCCCCCCN(c1ccccc1)C1C[C@H]2CCCC(=O)N3CC[C@@H](C1)[C@@H]23 (some centres undefined) -4.64%
Cc1cccc(C(=O)NCC2Cc3cc(F)cc(-c4cnccn4)c3O2)n1 (centres undefined) 10.5%
CCOC(=O)C[C@H]1c2cc(F)ccc2S(=O)(=O)N1Cc1cc(OC)c(OC)c(OC)c1 12.1%
CCN1CCCC1CNCc1cc2ccc(SC)cc2nc1-c1cc(OC)ccc1OC (centres undefined) 14.3%
COc1cc(=O)n2c(c1C(=O)N(C)Cc1cscn1)CCN(C(=O)c1cccc(C)c1C)CC2 8.58%
COc1ccccc1CNc1ccnc(-c2cccc(NS(C)(=O)=O)c2)n1 2.72%
O=c1cc(-c2ccccc2O)oc2cc(O)ccc12 2.48%
CC1OC(n2cc(F)c(=O)[nH]c2=O)C(O)C1O (centres undefined) 6.9%
CCCCCN(CCCCC)C(=O)C(CCC(=O)O)NC(=O)c1ccc(Cl)c(Cl)c1 (centres undefined)
N#CCCn1c(=O)c(-c2ccccc2)nc2cnc(Nc3ccccc3)nc21 12.1%
Nc1ccc(O)cc1 -22.7% [at 320 µM]
CC(C)NCC(O)c1ccc(O)c(O)c1 (centres undefined)
CC(C)(C)NC(=O)[C@@H]1C[C@@H]2CCCC[C@@H]2CN1C[C@@H](O)[C@H](Cc1ccccc1)NC(=O)[C@H](CC(N)=O)NC(=O)c1ccc2ccccc2n1 -21.1%
O=C(NCC1Cc2cccc(-c3cncnc3)c2O1)C1CC1 (centres undefined) 9.37%
CN1CCN(c2ncnc3ccc(-c4ccccc4C(F)(F)F)cc23)CC1 -7.54%
C[C@@H]1CCC(=O)N(CC[C@H](Sc2ccccc2)c2ccccc2)CC1 -2.57%
COCC(=O)N1CCC2(CC1)CCN(c1ccc(-c3ccccc3)cc1)CC2 11.1%
CCN(CC)c1ccc(N=Nc2ccc(S(=O)(=O)N(C)C)cc2)c(S(=O)(=O)NCC[n+]2ccccc2)c1 19.8%
COC(=O)c1ccccc1-c1cc(C)cc2c1OC(CNC(=O)C1CCOC1)C2 (centres undefined) 3.47%
Cc1cc(NC2CCCCC2)nc(-n2nc(C)cc2C)n1 10.6% [at 75.8 µM]
NCCSSCCN
CC(C)CN1CCC(=O)N([C@H](CSc2ccccc2)Cc2ccccc2)CC1 -15.7%
Nc1nc2c(ncn2COCCO)c(=O)[nH]1
CN(C)c1nc(-c2cccc(NS(C)(=O)=O)c2)nc2ccccc12 -5.27%
COC(=O)C1=C(C(=O)OC)[C@]2([C@H]3C/C=C\CN[C@@H](Cc4ccccc4)C(=O)N3Cc3ccccc3)C=C[C@H]1O2 -4.37%
O=Nc1ccc(/C=C/c2ccnc3ccccc23)cc1 17.4%
NC(=O)n1c(O)c(C(=O)c2cccs2)c2cc(Cl)ccc21 22.1%
CN(C)c1ccc(/C=c2\[nH]c(=O)/c(=C/c3ccc(N(C)C)cc3)[nH]c2=O)cc1 8.25%
CC(=O)O[C@H]1C(=O)[C@@]2(C)C([C@H](OC(=O)c3ccccc3)[C@]3(O)C[C@H](OC(=O)[C@H](O)[C@@H](NC(=O)c4ccccc4)c4ccccc4)C(C)=C1C3(C)C)[C@]1(OC(C)=O)CO[C@@H]1C[C@@H]2O (some centres undefined)
N#CCCn1c(=O)c(CCc2ccccc2)nc2cnc(OCc3ccccc3)nc21 -7.59%
Cc1cc(C(=O)Nc2cccc(-c3nc(CNC(=O)c4ccc[n+]([O-])c4)c(C)o3)c2)c(C)o1 5.97%
O=C(c1ccc2c(c1)OCO2)N1CCCCC1 1.3%
N#CCCn1c(=O)c(-c2cccs2)nc2cnc(N3CCNCC3)nc21 18%
NCCCCCCNS(=O)(=O)c1cccc2ccccc12 -2.47%
O=C(Oc1ccccc1)c1ccccc1O 9.84%
O=c1c(-c2ccc(Cl)cc2)nc2cnc(N3CCNCC3)nc2n1Cc1ccc(F)cc1 3.55%
CC(=O)OCC(=O)[C@@]1(O)[C@H](C)C[C@H]2[C@@H]3CCC4=CC(=O)C=C[C@]4(C)[C@@]3(F)[C@@H](O)C[C@@]21C
COc1ncnc(NS(=O)(=O)c2ccc(N)cc2)c1OC -6.57%
O=C(C[n+]1cccc(Br)c1)c1ccc(-c2ccccc2)cc1 0.0132%
COc1ccc(C(=O)c2ccccc2)c(O)c1
COc1ccc(C(=O)NCC2Cc3cc(C)cc(-c4cc(C(C)=O)ccc4F)c3O2)c(OC)c1OC (centres undefined) 11.9%
c1cncc(-c2nc(NCCN3CCOCC3)c3ccccc3n2)c1 15.8%
CC1(O)/C=C\C=C(\CO)C2CC(C)(C)C2(O)CC1 (centres undefined) 21.8%
CCC(C(N)=O)c1ccccc1 (centres undefined) -12.7%
O=c1c(-c2ccc(Cl)cc2)nc2cnc(N3CCNCC3)nc2n1-c1ccccc1 4.92%
CCOc1cc(CC(=O)N[C@@H](CC(C)C)c2ccccc2N2CCCCC2)ccc1C(=O)O 19.4% [at 75.8 µM]
COc1cc2c(cc1OC)C1(O)C(=O)c3ccc(O)c(C(=O)O)c3OC1CO2 (centres undefined) 2.39%
Nc1ccnc2c1ncn2[C@@H]1O[C@H](CO)[C@@H](O)[C@H]1O 18.8%
COc1cc(/C=C/CN2CCOc3ccc(C(O)c4cccnc4)cc3C2)ccc1O (centres undefined) -2.91%
COc1ccccc1-c1cc(Nc2ccn[nH]2)ncn1 -1.49%
COc1ccc2c(c1)CCc1cnc(-n3ncc(C(=O)N(C)CCc4ccccn4)c3C)nc1-2 15.1%
N#Cc1cccc(-c2ccc3ncnc(NCc4cccs4)c3c2)c1 12.7%
CCOC(=O)C1CCCCN1Cc1nc(N2CCN(C(C)=O)CC2)c2ccccc2n1 (centres undefined) 7.47%
CC1(C)CC23C(=O)CCC(O)C2(C)CCC13 (centres undefined) 20.3%
Cc1nc(C)c(CC(=O)N2CCOc3ccc(CN4CCN(c5ccccn5)CC4)cc3C2)s1 9.45%
COc1cccc(-c2ccc3ncnc(NCCNC(C)=O)c3c2)c1 5.55%
Cc1cc(OCCOCC[N+](C)(C)Cc2ccccc2)ccc1C(C)(C)CC(C)(C)C 21%
Cc1nc2cnc(Nc3ccccc3)nc2n(CCc2ccccc2)c1=O 2.49%
COc1cc2c(cc1OC)C(c1ccccc1)=NCC2 1.38%
COc1cccc(C=NC=Nc2cccc(OC)c2)c1 -20.7%
C[N+](C)(CCCCCC[N+](C)(C)CCCN1C(=O)c2cccc3cccc(c23)C1=O)CCCN1C(=O)c2cccc3cccc(c23)C1=O -1.42% [at 75.8 µM]
C[C@H](NC[C@H](O)CP(=O)(O)CC1CCCCC1)c1ccc(Cl)c(Cl)c1
CC(C)=CC1C(CO)C1(C)C (centres undefined) 14%
CC(C)n1cnc2c(NCc3ccccc3)nc(NCCO)nc21 15.9%
NCCCC[C@H](NC(=O)[C@@H]1CCCN1C(=O)[C@@H]1CSSC[C@H](N)C(=O)N[C@@H](Cc2ccccc2)C(=O)N[C@@H](Cc2ccccc2)C(=O)N[C@@H](CCC(N)=O)C(=O)N[C@@H](CC(N)=O)C(=O)N1)C(=O)NCC(N)=O (H-CFFQNCPKG-NH2; disulfide 1-6) -1.51%
[O]=[Bi][O]C(=O)[O][Bi]=[O] 22.7%
Cc1occc(=O)c1O 4.53%
O=C(O)c1ccc(OCCn2ccnc2)cc1 18%
COc1ccc(CNC(=O)C[C@H]2C(=O)N(Cc3ccc(OC)cc3)C[C@@H]2Cc2ccccc2)cc1 0.242%
O=C(O)COc1ccc(CCNS(=O)(=O)c2ccccc2)s1 13.5%
NC(CCCP(=O)(O)O)C(=O)O (centres undefined) 20.6% [at 75.8 µM]
CCCS(=O)(=O)NCc1c(C)ncc2c1CCN(C(=O)c1ccc(F)c(F)c1)C2 20.6%
COc1cc(-c2cc(C)c3cccc(OC)c3n2)cc2c1OCCN(C(=O)CCn1ccc(C)n1)C2 15%
COCCn1c(=O)c(-c2ccccc2)nc2cnc(Nc3ccccc3)nc21 19.2%
COCCn1c(=O)cnc2cnc(OCc3ccccc3)nc21 9.11%
O=c1c(-c2cccs2)nc2cncnc2n1-c1ccccc1 -8.23%
CCCCN(CCCC)CCC(O)c1cc2c(Cl)cc(Cl)cc2c2cc(C(F)(F)F)ccc12 (centres undefined) -16.1% [at 75.8 µM]
